Reference: the supplement of paper PMC3334620
The full ranking holds about 33,000 sequences; the median of “E-score (-0.5 to 0.5)” is about -0.043, and the highest 2% start at about 0.37. This is one part of the list.

Target: T1, Upc2 (UniProt Q12151)
T1 sequence: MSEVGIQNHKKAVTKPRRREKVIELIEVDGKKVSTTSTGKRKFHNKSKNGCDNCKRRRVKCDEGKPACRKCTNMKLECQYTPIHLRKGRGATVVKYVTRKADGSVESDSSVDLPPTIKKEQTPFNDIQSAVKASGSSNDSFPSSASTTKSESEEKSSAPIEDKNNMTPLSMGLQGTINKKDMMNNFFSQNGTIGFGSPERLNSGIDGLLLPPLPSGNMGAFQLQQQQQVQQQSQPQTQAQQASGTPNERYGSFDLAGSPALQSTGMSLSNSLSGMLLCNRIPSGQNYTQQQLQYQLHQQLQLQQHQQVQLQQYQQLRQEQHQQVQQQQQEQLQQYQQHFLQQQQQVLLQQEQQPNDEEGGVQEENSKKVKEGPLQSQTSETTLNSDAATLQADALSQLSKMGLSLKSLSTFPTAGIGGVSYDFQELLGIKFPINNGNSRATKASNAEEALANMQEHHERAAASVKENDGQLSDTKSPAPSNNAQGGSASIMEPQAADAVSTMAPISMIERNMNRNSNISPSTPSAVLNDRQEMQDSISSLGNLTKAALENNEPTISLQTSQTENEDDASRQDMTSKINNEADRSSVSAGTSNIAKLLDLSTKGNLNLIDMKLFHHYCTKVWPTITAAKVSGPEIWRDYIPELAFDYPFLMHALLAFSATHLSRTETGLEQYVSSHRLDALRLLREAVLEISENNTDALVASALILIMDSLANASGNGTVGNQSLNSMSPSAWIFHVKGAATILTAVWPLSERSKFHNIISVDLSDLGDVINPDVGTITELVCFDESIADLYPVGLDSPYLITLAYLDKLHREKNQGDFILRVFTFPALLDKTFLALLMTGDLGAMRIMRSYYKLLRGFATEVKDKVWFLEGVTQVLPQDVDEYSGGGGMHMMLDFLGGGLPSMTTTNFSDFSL
Assay: PBM E-score (8-mer binding enrichment) (E-score (-0.5 to 0.5)); higher = stronger / more preferred TF binding; most listed sequences are background and not binding sites
Details: protein concentration: 200 nM; construct: GST-full length
Summary of the method: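 E-scores (a modified Wilcoxon-Mann-Whitney statistic) were assigned by the Universal PBM Analysis Suite to every ungapped eight-base word pooled with its reverse complement. The input came from universal all-10-mer Agilent arrays made double-stranded by primer extension and probed with GST-tagged yeast transcription factors at about 100-200 nM. Fluorescent anti-GST detected bound protein, and masliner normalised the scans.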

Point of comparison: AGGACTTC, “PBM E-score” value -0.183. Against it:
- GACATCAC — higher, 0.0962
- CGGTGGAA — higher, 0.146
- GAAGATAA — higher, 0.0599
- CAAGTCAG — higher, -0.182
- AACTTAAG — higher, -0.176
- AGGGAAAG — higher, -0.113
- ACGCAACT — higher, 0.0512
- CTTGGATC — higher, -0.147
- ATCTGCGA — lower, -0.211
- CCCGATCG — higher, 0.138
- ATGGAGTC — lower, -0.26
- GAACTGCC — higher, -0.00245
- GACCGATA — higher, 0.123
- GTAGCTAC — higher, -0.00085
- CCGCCTAG — lower, -0.217
- AATGGTCC — higher, -0.0457
- AGCAGTAG — lower, -0.218
- AAGCGCAA — higher, 0.0633
- AGACCAGA — lower, -0.185
- GATCCGCC — higher, -0.0258
- ACTGTGGA — lower, -0.31
- AGGGAGGA — higher, -0.0889
- ATTCCCTG — lower, -0.184
- CGCCTGAC — higher, -0.106
- GTCGAGCA — lower, -0.207
- AGACGACT — higher, 0.0557
- GGATATCC — higher, 0.0302
- GAATATCC — higher, 0.0376
- ATTGCTAA — higher, 0.126
- CACATTAG — higher, -0.127
- CGGAACTA — higher, 0.0867
- CTGTATCA — lower, -0.19
- GAAGAATC — higher, -0.126
- CACTCTGA — higher, -0.156
- CAGTTCGA — higher, -0.152
- ATTGTTGG — higher, -0.153
- AGTGGGAA — higher, -0.129
- CGATACCA — higher, 0.151
- ACATTCTA — higher, -0.0366
- AACCGTGC — higher, 0.0408
- CCAATAGA — lower, -0.265
- CTGACTAA — higher, -0.101
- CGGTAGCC — higher, 0.0638
- GGGTATAA — higher, -0.0582
- GACTACCA — higher, -0.0157
- CCGGGTAA — higher, 0.0509
- GAGGCTGC — lower, -0.209
- CGAGCCCC — higher, 0.126
- CTGCGAAA — higher, -0.0463
- CGATCACC — higher, 0.116
- ACGACTCT — higher, 0.319
- AGCTGACT — higher, 0.0548
- CTGTAGTA — higher, 0.131
- AGCACTAG — higher, -0.0309
- GTTCATCA — higher, 0.0167
- GCAGATAC — higher, 0.105
- CTGATATA — higher, 0.0604
- CCGGCGTA — higher, 0.248
- GATTTTTA — higher, 0.069
- CCTTCGAG — higher, -0.116
- AACGTGCA — higher, 0.113
- GATAGCCC — higher, -0.109
- CATCTGGA — higher, -0.166
- AGTAGCAA — higher, 0.031
- CAAAACCC — higher, 0.0466
- CGCGCCAC — higher, -0.17
- AGACCCAA — higher, -0.132
- CCAGCGTC — lower, -0.209
- CACTCATC — higher, -0.0626
- AGCAGCGC — higher, -0.0927
- GGTGAGTA — higher, -0.124
- AAACAAGA — higher, 0.139
- GTGGAAAA — higher, 0.124
- GTGCGAAA — higher, 0.0959
- AGACCACG — higher, -0.129
- ACCGCCGA — higher, -0.0605
- CTTACAAA — higher, 0.0368
- CATCTTCG — higher, 0.0565
- GTCACTGA — higher, -0.13
- ATTCTGAG — lower, -0.191
- TATTGTCA — higher, -0.0846
- ATTTCACA — lower, -0.227
- ACATGCCT — higher, -0.134
- GGCAACAA — higher, 0.0296
- AGAGATTC — higher, -0.0209
- AATTCCGA — higher, 0.166
- AGATCTGG — higher, -0.105
- GACAATGC — higher, -0.0118
- GAGATCCA — higher, -0.0815
- CGCGATCC — higher, 0.118
- ACACGAAA — higher, 0.197
- GTCAATTA — higher, 0.0697
- ACGGTGCG — higher, 0.268
- TAGTTATA — higher, 0.099
- AACGGAGC — higher, 0.165
- GGCTGCCA — lower, -0.185
- CCCCGTAC — higher, 0.368
- ACTCCCGG — lower, -0.244
- CAGATGTC — higher, 0.0314
- CACACGTC — higher, -0.154
- AAGTCACT — higher, -0.0329
- CTCTACCC — higher, 0.0316
- ACGGGGCC — higher, 0.159
- CTTTAAGC — higher, 0.00706
- CTCGATCC — higher, 0.0922
- AATACTAG — higher, 0.00488
- CGACCAAC — higher, 0.125
- AAGATCTC — higher, 0.0321
- GGGAACAC — higher, -0.0556
- GATGGAGA — lower, -0.217
- CCTCCCTA — higher, -0.00283
- CTCAGCTC — higher, -0.114
- ATGACAGC — higher, -0.115
- GAGGAAGC — higher, 0.00224
- GGTGGTAC — higher, 0.0249
- TATTTCGA — higher, 0.171
- AACCAACG — lower, -0.234
- ACCCATGC — lower, -0.259
- TCATCAGA — lower, -0.187
- AGACACCG — higher, -0.113
- AACCGCCA — higher, -0.147
- CCAGTCAC — lower, -0.276
- CTGCGGCA — higher, -0.102
- CGTTACCC — higher, 0.137
- CAACCCGG — higher, -0.0562
- TGATCAAA — higher, -0.0795
- ATAGTAAA — higher, 0.0674
- GAAATAGC — higher, -0.0276
- CCGTCGGC — higher, 0.026
- GACGTACA — higher, 0.305
- GTTTCAGA — higher, -0.0953
- ACCCAAGA — lower, -0.256
- AGCGAGCC — higher, 0.189
- AGAGAGTC — higher, -0.0633
- CGCGCACA — higher, 0.0678
- AAAATGTC — higher, 0.14
- AGCTCTGG — lower, -0.214
- AAAATTGC — higher, 0.233
- CATCGAGA — higher, -0.00533
- CAATGGTG — lower, -0.214
- ATGGTTCC — higher, -0.0818
- GTGGGAGA — higher, -0.0577
- CGACCGAG — higher, 0.18
- CAACTTGC — higher, -0.0613
- CCACCTAA — higher, -0.143
- AGACCGCT — higher, -0.126
- CTCAGAAG — higher, -0.132
- ACGGGTGG — higher, -0.0334
- CATAACAA — higher, 0.175
- ATGCTAAC — higher, -0.108
- ACTCCGAC — higher, -0.123
- CAGGCAAA — higher, 0.0826
- GCGCTAAC — higher, 0.123
- CCTGGACC — higher, 0.0305
- ACCCCACG — lower, -0.258
- ATCGGAAC — higher, 0.177
- GTGGGCAA — higher, -0.156
- AAGTCGCC — higher, -0.154
- CTAACTAA — higher, -0.0564
- AGCCTGAA — higher, -0.107
- ATGCTCGC — higher, 0.165
- AACTTGGC — higher, -0.0699
- ACGTCTAC — higher, 0.091
- CCAGAGCG — lower, -0.232
- AAATCCCC — higher, -0.147
- GACGCATA — higher, 0.114
- ACTGACGG — lower, -0.306
- ACTCCCTC — higher, -0.175
- ACCATTGG — higher, -0.114
- ATCACACA — higher, -0.108
- CATCGACA — higher, -0.133
